# In PubChem BioAssay (Tox21):
# Several values for one entry are separate records, joined by “and”; a condition that tells them apart may be missing. Identical values can stand only once. Inconclusive results, whose numbers are uncertain, are shown with a selection of clear calls. For some assays here: A potency beside an inconclusive call is a rough fit, not a confirmed value. Activity calls are given as the source filed them. Unless noted, the call rests on the fitted dose curve.
# What was measured:
# [1] = qHTS assay to identify small molecule agonists of the endoplasmic reticulum stress response signaling pathway (AID 1159516; active means well fitted activation curve with a large enough effect in the signal ratio in the repeat runs, not every such curve was filed as active; inconclusive means weak or mixed curves, or effect the other way; the % refers to the signal ratio; further: potency means the concentration at half of the fitted maximal effect; on activation: on the % scale 0 is the no-effect control and ±100 the full control effect); settings: ESRE-bla HeLa, ER stress beta-lactamase reporter, 5 h; activation: at 61 µM (top of the series) unless noted
# How it was run: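 Using a HeLa line with an ESRE-driven beta-lactamase gene, agonist activity was measured by FRET substrate fluorescence (460 and 530 nm emission) after cells were treated with compounds for 5 hr at 37 C and 5% CO2.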
# [2] = biological target: Retinoic acid receptor RXR-alpha (Homo sapiens) (UniProt P19793); assay: qHTS assay to identify small molecule agonists of the RXR signaling pathway (AID 1159527); settings: HEK293T RXRa-UAS-bla, beta-lactamase ratio, 16 h; activation: at 76.8 µM (top of the series) unless noted; further: nearly all actives have a fitted effect of over 35% in size; further: potency means the concentration at half of the fitted maximal effect; on activation: on the % scale 0 is the no-effect control and ±100 the full control effect
# How it was run: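 Compounds in DMSO were added to RXR-alpha-UAS-bla HEK 293T cells kept in 2% charcoal-stripped serum, and incubated 16 hr at 37 C with 5% CO2. Reporter signal came from a 2 hr B/G FRET substrate step.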
# [3] = qHTS assay to identify small molecule agonists of the vitamin D receptor (VDR) signaling pathway - cell viability counter screen (AID 743224; active means well fitted curve in the direction sought with a large enough effect in the repeat runs; inconclusive means weak or mixed curves; inactive means no such curve, though single readings can be large; an effect the other way counts as inactive or inconclusive; further: nearly all actives have a fitted effect of over 50% in size; further: potency means the concentration at half of the fitted maximal effect); settings: VDR-bla HEK293T viability, CellTiter-Glo luminescence, 16 h; activity change, negative = cytotoxicity: at 62.6 µM (top of the series)
# How it was run: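 Compounds were pin-transferred onto VDR-bla cells plated 4 h earlier; following 16 h incubation at 37C, cell viability was quantified by CellTiter-Glo luminescence after 30 min at room temperature.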
# [4] = qHTS assay to identify small molecule agonists of the AP-1 signaling pathway (AID 1159526); settings: ME-180 (cervical carcinoma) AP-1-bla reporter, beta-lactamase FRET ratio, 5 h; activation: at 76.8 µM (top of the series) unless noted; further: on the % scale 0 is the no-effect control and ±100 the full control effect
# [5] = qHTS assay to identify small molecule agonists of the farnesoid-X-receptor (FXR) signaling pathway - cell viability counter screen (AID 743218; active means well fitted curve in the direction sought with a large enough effect in the repeat runs; inconclusive means weak or mixed curves; inactive means no such curve, though single readings can be large; an effect the other way counts as inactive or inconclusive; further: on the % scale 0 is the no-effect control and ±100 the full control effect; nearly all actives have a fitted effect of over 45% in size); settings: FXR-bla HEK293T viability, CellTiter-Glo luminescence, 16 h; viability change, negative = cytotoxic: at 62.6 µM (top of the series) unless noted
# How it was run: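 Viability of FXR-bla HEK 293T cells is measured by ATP-based CellTiter-Glo luminescence following 16 h compound treatment at 37 C and a prior 2 h room-temperature beta-lactamase substrate step.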
# [6] = biological target: Vitamin D3 receptor (Homo sapiens) (UniProt P11473); assay: qHTS assay to identify small molecule antagonists of the vitamin D receptor (VDR) signaling pathway (AID 743223; active means well fitted inhibition curve with a large enough effect in the signal ratio in the repeat runs, not every such curve was filed as active; inconclusive means weak or mixed curves, or effect the other way; inactive means no such curve, though single readings can be large or run the other way; the % refers to the signal ratio; further: potency means the concentration at half of the fitted maximal effect); settings: VDR-UAS-bla HEK293T, beta-lactamase FRET ratio, 16 h
# How it was run: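 Quantitative HTS in VDR-bla reporter cells stimulated with 1alpha,25-dihydroxyvitamin D3, 3 nM final. Compound exposure 16 h, 37C, 5% CO2. Read-out: beta-lactamase FRET substrate fluorescence, 2 h RT.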
# [7] = biological target: Peroxisome proliferator-activated receptor delta (Homo sapiens) (UniProt Q03181); assay: qHTS assay to identify small molecule agonists of the peroxisome proliferator-activated receptor delta (PPARd) signaling pathway (AID 743212); settings: HEK293H PPARd-UAS-bla, beta-lactamase FRET ratio, 17 h; activation: at 62.6 µM (top of the series) unless noted; further: potency means the concentration at half of the fitted maximal effect
# How it was run: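 Cells expressing a UAS-driven beta-lactamase reporter (PPARd-bla HEK293H) were given test compounds after a 5 h settle and kept at 37 C. Reporter activity was then measured as FRET fluorescence using LiveBLAzer B/G substrate.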
# [8] = biological target: Vitamin D3 receptor (Homo sapiens) (UniProt P11473); assay: qHTS assay to identify small molecule agonists of the vitamin D receptor (VDR) signaling pathway (AID 743222); settings: HEK293T VDR-UAS-bla, beta-lactamase FRET ratio, 16 h; activation: at 63.5 µM (top of the series) unless noted; further: potency means the concentration at half of the fitted maximal effect
# How it was run: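 Fluorescence from cleaved LiveBLAzer B/G FRET substrate served as readout. VDR-bla cells had been treated 16 h at 37C with test compounds in DMSO, following a 4 h settling period, and substrate was loaded for 2 h at RT.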
# [9] = qHTS assay to identify small molecule antagonists of the peroxisome proliferator-activated receptor delta (PPARd) signaling pathway - cell viability counter screen (AID 743213; active means well fitted curve in the direction sought with a large enough effect in the repeat runs; inconclusive means weak or mixed curves; inactive means no such curve, though single readings can be large; an effect the other way counts as inactive or inconclusive; further: nearly all actives have a fitted effect of over 50% in size; further: potency means the concentration at half of the fitted maximal effect); settings: PPARd-bla HEK293H viability, CellTiter-Glo luminescence, 17 h; viability change, negative = cytotoxic: at 62 µM (top of the series) unless noted
# How it was run: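 CellTiter-Glo was added to PPARd-bla HEK293H wells following 17 h compound treatment in the presence of 300 nM L165041. Luminescence was recorded after 30 min at room temperature.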
# [10] = biological target: Peroxisome proliferator-activated receptor delta (Homo sapiens) (UniProt Q03181); assay: qHTS assay to identify small molecule antagonists of the peroxisome proliferator-activated receptor delta (PPARd) signaling pathway (AID 743215; active means well fitted inhibition curve with a large enough effect in the signal ratio in the repeat runs, not every such curve was filed as active; inconclusive means weak or mixed curves, or effect the other way; inactive means no such curve, though single readings can be large or run the other way; the % refers to the signal ratio;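 further: cells stimulated with agonist L165041 at 300 nM final during compound exposure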; further: potency means the concentration at half of the fitted maximal effect); settings: HEK293H PPARd-UAS-bla, beta-lactamase FRET ratio, antagonist, 17 h; ratio activity, negative = inhibition: at 62 µM (top of the series) unless noted
# How it was run: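 Plated HEK293H PPARd-bla cells rested 5 h at 37 C and 5% CO2. Compound, then agonist L165041 at 300 nM final, was added; 17 h at 37 C followed. Substrate loading, 2 h room temperature, fluorescence measured.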
# [11] = biological target: Bile acid receptor (Homo sapiens) (UniProt Q96RI1); assay: qHTS assay to identify small molecule antagonists of the farnesoid-X-receptor (FXR) signaling pathway (AID 743217; active means well fitted inhibition curve with a large enough effect in the signal ratio in the repeat runs, not every such curve was filed as active; inconclusive means weak or mixed curves, or effect the other way; inactive means no such curve, though single readings can be large or run the other way; the % refers to the signal ratio; further: on the % scale 0 is the no-effect control and ±100 the full control effect); settings: HEK293T FXR-UAS-bla, beta-lactamase ratio, CDCA-stimulated, 16 h; activity change, negative = inhibition: at 62.6 µM (top of the series) unless noted
# How it was run: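 Screen of the Tox21 10K library in quantitative HTS format using FXR-UAS-bla HEK 293T reporter cells. Agonist chenodeoxycholic acid, 50 uM final, added with compounds; 16 h incubation at 37 °C; beta-lactamase FRET fluorescence measured.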
# [12] = qHTS assay to identify small molecule antagonists of the vitamin D receptor (VDR) signaling pathway - cell viability counter screen (AID 743225; active means well fitted curve in the direction sought with a large enough effect in the repeat runs; inconclusive means weak or mixed curves; inactive means no such curve, though single readings can be large; an effect the other way counts as inactive or inconclusive; further: potency means the concentration at half of the fitted maximal effect; nearly all actives have a fitted effect of over 50% in size); settings: VDR-bla HEK293T viability, CellTiter-Glo luminescence, 16 h; viability change, negative = cytotoxic: at 61 µM (top of the series) unless noted
# How it was run: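 Same-well multiplex: following 16 h treatment of HEK 293T cells carrying a UAS-driven beta-lactamase reporter with compound and agonist (3 nM final), and a 2 h FRET substrate step, CellTiter-Glo was added and luminescence read after 30 min.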
# [13] = qHTS assay to identify small molecule agonists of the RXR signaling pathway - cell viability counter screen (AID 1159529; active means well fitted curve in the direction sought with a large enough effect in the repeat runs; inconclusive means weak or mixed curves; inactive means no such curve, though single readings can be large; an effect the other way counts as inactive or inconclusive; further: potency means the concentration at half of the fitted maximal effect; nearly all actives have a fitted effect of over 50% in size)
# How it was run: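 Counter screen: CellTiter-Glo luminescence. Cells: RXR-alpha-UAS-bla HEK 293T. Medium: 2% charcoal-stripped FBS. Treatment: 16 h, 37 C. Reagent incubation: 30 min, RT.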
# [14] = qHTS assay to identify small molecule antagonists of the farnesoid-X-receptor (FXR) signaling pathway - cell viability counter screen (AID 743221; active means well fitted cell-killing curve with a large enough effect in the repeat runs, not every such curve was filed as active; inconclusive means weak or mixed curves, or effect the other way; inactive means no such curve, though single readings can be large or run the other way); settings: FXR-bla HEK293T viability, CellTiter-Glo luminescence, 16 h; activity change, negative = cytotoxicity: at 62.6 µM (top of the series)
# How it was run: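 Cytotoxicity is taken from ATP luminescence (CellTiter-Glo, 30 min, room temperature) in FXR-bla HEK 293T cells previously incubated 16 h at 37 C with compound and chenodeoxycholic acid at 50 uM final.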
# [15] = activity change, negative = inhibition: at 61 µM (top of the series) unless noted
# Tags describe the fitted curve by direction and shape or compound fluorescence and quenching.
# Sequence of UniProt P19793 (P19793 whole entry, looked up): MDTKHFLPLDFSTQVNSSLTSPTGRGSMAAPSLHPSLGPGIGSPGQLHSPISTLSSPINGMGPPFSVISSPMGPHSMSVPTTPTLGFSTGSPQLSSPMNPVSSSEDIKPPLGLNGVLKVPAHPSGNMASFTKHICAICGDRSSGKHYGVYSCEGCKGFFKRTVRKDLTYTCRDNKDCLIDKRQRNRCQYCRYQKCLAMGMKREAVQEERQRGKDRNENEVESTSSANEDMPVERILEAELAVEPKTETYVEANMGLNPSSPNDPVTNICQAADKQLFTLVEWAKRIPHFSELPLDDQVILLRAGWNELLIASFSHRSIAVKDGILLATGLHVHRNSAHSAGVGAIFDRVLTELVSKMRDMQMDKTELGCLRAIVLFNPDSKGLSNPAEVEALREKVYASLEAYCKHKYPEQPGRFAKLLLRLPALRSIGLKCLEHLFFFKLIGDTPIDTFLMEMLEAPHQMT
# Sequence of UniProt P11473 (P11473 whole entry, looked up): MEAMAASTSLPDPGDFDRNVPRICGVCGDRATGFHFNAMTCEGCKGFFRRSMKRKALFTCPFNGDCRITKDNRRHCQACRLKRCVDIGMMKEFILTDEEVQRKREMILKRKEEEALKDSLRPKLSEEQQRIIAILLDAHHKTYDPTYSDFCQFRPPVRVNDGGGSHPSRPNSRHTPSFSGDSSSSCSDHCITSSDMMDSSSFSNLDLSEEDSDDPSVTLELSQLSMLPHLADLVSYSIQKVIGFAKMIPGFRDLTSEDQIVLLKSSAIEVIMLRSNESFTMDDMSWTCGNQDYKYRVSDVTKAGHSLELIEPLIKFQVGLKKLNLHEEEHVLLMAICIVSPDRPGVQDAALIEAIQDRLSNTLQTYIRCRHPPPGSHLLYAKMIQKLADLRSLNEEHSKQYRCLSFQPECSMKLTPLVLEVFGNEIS
# Sequence of UniProt Q96RI1 (Q96RI1 whole entry, looked up): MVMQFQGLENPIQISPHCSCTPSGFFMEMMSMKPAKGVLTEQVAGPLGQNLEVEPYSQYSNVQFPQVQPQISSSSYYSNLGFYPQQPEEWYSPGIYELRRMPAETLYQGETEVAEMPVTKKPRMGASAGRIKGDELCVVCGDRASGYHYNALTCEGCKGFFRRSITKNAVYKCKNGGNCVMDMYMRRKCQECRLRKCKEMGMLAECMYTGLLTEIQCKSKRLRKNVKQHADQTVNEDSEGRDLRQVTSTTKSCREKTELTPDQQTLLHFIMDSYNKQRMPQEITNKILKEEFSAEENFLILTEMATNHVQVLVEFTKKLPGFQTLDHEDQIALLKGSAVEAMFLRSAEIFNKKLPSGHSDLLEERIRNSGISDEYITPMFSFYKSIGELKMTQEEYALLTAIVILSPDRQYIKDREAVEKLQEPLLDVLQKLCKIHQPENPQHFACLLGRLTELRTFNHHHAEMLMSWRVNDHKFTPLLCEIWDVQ
# Sequence of UniProt Q03181 (Q03181 whole entry, looked up): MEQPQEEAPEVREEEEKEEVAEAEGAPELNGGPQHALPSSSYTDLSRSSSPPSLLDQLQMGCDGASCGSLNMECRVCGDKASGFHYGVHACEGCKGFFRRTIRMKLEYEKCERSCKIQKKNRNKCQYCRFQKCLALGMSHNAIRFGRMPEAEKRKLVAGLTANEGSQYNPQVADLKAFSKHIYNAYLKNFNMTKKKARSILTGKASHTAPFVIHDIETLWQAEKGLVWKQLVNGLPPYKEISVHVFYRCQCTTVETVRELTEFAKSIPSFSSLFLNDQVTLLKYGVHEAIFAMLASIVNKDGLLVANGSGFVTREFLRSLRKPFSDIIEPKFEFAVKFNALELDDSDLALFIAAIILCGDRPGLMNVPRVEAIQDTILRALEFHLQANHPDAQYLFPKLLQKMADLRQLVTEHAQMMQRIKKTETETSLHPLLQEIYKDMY
compound,measurement,setting,value
CC(CN)CCCN (stereo not given),Potency,[1],inactive
same,activation,[2],inconclusive: -24.7%
C=C(C)C(=O)OCCN(CC)CC,Potency,[3],inactive
same,Potency,[1],inactive
same,Potency,[4],inactive
Cc1onc(-c2ccccc2Cl)c1C(=O)N[C@@H]1C(=O)N2[C@@H]1SC(C)(C)[C@@H]2C(=O)O,Potency,[5],inactive
same,Potency,[6]; [15],inactive
same,Potency,[1],"inconclusive: 5.35 µM [inhibitor, partial curve, poor fit]"
same,activation,[4],inconclusive: -15.2% [at 35.3 µM]
CC(=O)/C=C/C=C1/C2CCC(C2)C1(C)C (stereo not given),Potency,[1],inactive
same,Potency,[2],inactive
CCCCOC(=O)c1ccccc1,Potency,[7],inactive
same,Potency,[8],inactive
same,Potency,[1],inactive
same,Potency,[2],inactive
CC(=O)c1ccc2ccc3ccccc3c2c1,Potency,[7],inactive
same,Potency,[9],inactive
same,"ratio activity, negative = inhibition",[10],inconclusive: 11.1%
same,Potency,[11],inactive
same,Potency,[1],inactive
same,Potency,[2],inactive
CC/C=C\C/C=C\C/C=C\CCCCCCCC(=O)OCC,"activity change, negative = inhibition",[6]; [15],inconclusive: -2.4% [at 78.8 µM]
same,Potency,[3],"inconclusive: 56.2 µM [cytotoxic, single point]"
same,Potency,[12],"inconclusive: 50.1 µM [cytotoxic, single point]"
same,Potency,[1],inconclusive: 63.1 µM
same,Potency,[2],"inconclusive: 22.4 µM [rising, partial curve, poor fit]"
same,Potency,[13],"inconclusive: 22.4 µM [cytotoxic, partial curve, poor fit]"
CC(=O)CCC1=C(C)CCCC1(C)C,Potency,[7],inactive
same,"activity change, negative = inhibition",[6]; [15],inconclusive: 1.99%
same,Potency,[1],inactive
same,Potency,[2],inactive
CCOC(=O)C(C)Oc1ccc(Oc2cnc3cc(Cl)ccc3n2)cc1 (stereo not given),Potency,[7],"inconclusive: 35.5 µM [rising, partial curve, poor fit]"
same,Potency,[10],"inconclusive: 31.7 µM [fluorescent, partial curve]"
same,Potency,[6]; [15],"inconclusive: 10.3 µM [activator, partial curve]"
same,"activity change, negative = inhibition",[6]; [15],inconclusive: 6.28% [at 78.8 µM]
same,Potency,[1],"inconclusive: 63.2 µM [rising, single point]"
same,Potency,[2],"inconclusive: 25.1 µM [rising, partial curve] and inconclusive: 36.4 µM [rising, partial curve]"
Cl[Si](Cl)(c1ccccc1)c1ccccc1,Potency,[9],"inconclusive: 6.31 µM [cytotoxic, full curve, poor fit]"
same,"ratio activity, negative = inhibition",[10],inconclusive: -7.2% [at 80.4 µM]
same,Potency,[11],inactive
same,Potency,[12],"inconclusive: 2.51 µM [cytotoxic, single point]"
same,Potency,[1],"inconclusive: 0.005 µM [falling, full curve]"
same,Potency,[2],inactive
CCCCCCCCS,Potency,[7],inactive
same,Potency,[10],inactive
same,Potency,[1],inactive
same,Potency,[2],"inconclusive: 55.7 µM [activator, single point]"
Nc1nc2ncc(CNc3ccc(C(=O)N[C@@H](CCC(=O)O)C(=O)O)cc3)nc2c(=O)[nH]1,activation,[7],inconclusive: 8.37%
same,Potency,[5],inactive
same,activation,[8],inconclusive: 24.1%
same,Potency,[6]; [15],"inconclusive: 1.95 µM [activator, partial curve] and inconclusive: 952 nM [activator, partial curve]"
same,Potency,[1],"inconclusive: 0.0006 µM [falling, full curve]"
same,Potency,[2],"inconclusive: 24.5 µM [activator, partial curve, poor fit]"
C[C@@H](O)[C@H](N)C(=O)O,Potency,[7],inactive
same,Potency,[11],inactive
same,Potency,[1],"inconclusive: 0.0414 µM [falling, full curve, poor fit]"
same,activation,[2],inactive: 0.146% [at 15.8 µM]
Cc1cc(-c2ccccc2)nnc1NCCN1CCOCC1,Potency,[9],"inconclusive: 33.5 µM [rising, partial curve, poor fit]"
same,"ratio activity, negative = inhibition",[10],inconclusive: 8.49%
same,Potency,[8],inactive
same,Potency,[1],inactive
same,Potency,[2],inactive
CCCCCCC[N+](CC)(CC)CCCCc1ccc(Cl)cc1,Potency,[8],"inconclusive: 29.8 µM [rising, partial curve]"
same,Potency,[3],"inconclusive: 21.1 µM [cytotoxic, partial curve, poor fit]"
same,Potency,[1],"inconclusive: 0.019 µM [rising, full curve, poor fit]"
same,Potency,[2],"inconclusive: 10.7 µM [rising, partial curve]"
same,Potency,[13],"inconclusive: 0.301 µM [cytotoxic, full curve]"
CC(C)(C)c1cc(CO)cc(C(C)(C)C)c1O,Potency,[7],"inconclusive: 56 µM [rising, partial curve, poor fit]"
same,"ratio activity, negative = inhibition",[10],inconclusive: -14.2% [fluorescent] [at 80.4 µM]
same,"activity change, negative = inhibition",[11],inconclusive: -34.4% [at 81.1 µM]
same,Potency,[5],inactive
same,Potency,[14],"inconclusive: 3.96 µM [falling, full curve, poor fit]"
same,Potency,[1],inactive
same,Potency,[2],"inconclusive: 56 µM [falling, partial curve, poor fit]"
CCCCCCCCC,Potency,[9],"inactive and inconclusive: 245 nM [cytotoxic, single point]"
same,"activity change, negative = inhibition",[6]; [15],inconclusive: 31.2%
same,"activity change, negative = inhibition",[6]; at 78.8 µM (top of the series),inactive: -2.62%
same,Potency,[12],"inconclusive: 1.13 µM [cytotoxic, single point]"
same,Potency,[1],"inconclusive: 1.26 µM [falling, single point]"
same,Potency,[2],"inconclusive: 44.8 µM [activator, partial curve]"
